# Results published in PubChem BioAssay AID1347165 (National Center for Advancing Translational Sciences (NCATS), 2019).
# Among all 220,000 compounds or so, about 5,700 (2.6%) were called active. Inconclusive results, whose numbers are uncertain, are shown with a selection of clear calls. Calls follow the shape of the dose curve; as a rule, active = well fitted inhibition curve with a large enough effect; inconclusive = small, poorly fitted or top-dose-only effect; inactive = no such curve, though single readings can be large or run the other way. Where the call is inconclusive, the potency comes from a doubtful curve fit.
# Target: Lysine-specific demethylase 5B (Homo sapiens) (UniProt Q9UGL1)
# Test: Primary screen for KDM5B Histone Demethylases FDH-coupled qHTS; also: nearly all actives have a fitted effect of over 70% in size; as to activity change, negative = inhibition: 0% is about no effect
# Details: FDH-coupled NADH fluorescence (FDH is formaldehyde dehydrogenase); activity change, negative = inhibition: at 57.7 µM (top of the series) unless noted
# Procedure, shortened: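 Compound dilutions met 200 nM (final) KDM5BΔAP for 10 min at room temperature before substrate addition. The substrate mix held 12.5 µM H3K4me3 with cofactors 25 µM α-ketoglutarate and 50 µM Fe²⁺. NADH signal gain over 30 min defined activity.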
# Potency is read from the fitted curve at half-maximal effect; tags tell the direction and shape of the fitted curve.
# Sequence of UniProt Q9UGL1 (Q9UGL1 whole entry, looked up): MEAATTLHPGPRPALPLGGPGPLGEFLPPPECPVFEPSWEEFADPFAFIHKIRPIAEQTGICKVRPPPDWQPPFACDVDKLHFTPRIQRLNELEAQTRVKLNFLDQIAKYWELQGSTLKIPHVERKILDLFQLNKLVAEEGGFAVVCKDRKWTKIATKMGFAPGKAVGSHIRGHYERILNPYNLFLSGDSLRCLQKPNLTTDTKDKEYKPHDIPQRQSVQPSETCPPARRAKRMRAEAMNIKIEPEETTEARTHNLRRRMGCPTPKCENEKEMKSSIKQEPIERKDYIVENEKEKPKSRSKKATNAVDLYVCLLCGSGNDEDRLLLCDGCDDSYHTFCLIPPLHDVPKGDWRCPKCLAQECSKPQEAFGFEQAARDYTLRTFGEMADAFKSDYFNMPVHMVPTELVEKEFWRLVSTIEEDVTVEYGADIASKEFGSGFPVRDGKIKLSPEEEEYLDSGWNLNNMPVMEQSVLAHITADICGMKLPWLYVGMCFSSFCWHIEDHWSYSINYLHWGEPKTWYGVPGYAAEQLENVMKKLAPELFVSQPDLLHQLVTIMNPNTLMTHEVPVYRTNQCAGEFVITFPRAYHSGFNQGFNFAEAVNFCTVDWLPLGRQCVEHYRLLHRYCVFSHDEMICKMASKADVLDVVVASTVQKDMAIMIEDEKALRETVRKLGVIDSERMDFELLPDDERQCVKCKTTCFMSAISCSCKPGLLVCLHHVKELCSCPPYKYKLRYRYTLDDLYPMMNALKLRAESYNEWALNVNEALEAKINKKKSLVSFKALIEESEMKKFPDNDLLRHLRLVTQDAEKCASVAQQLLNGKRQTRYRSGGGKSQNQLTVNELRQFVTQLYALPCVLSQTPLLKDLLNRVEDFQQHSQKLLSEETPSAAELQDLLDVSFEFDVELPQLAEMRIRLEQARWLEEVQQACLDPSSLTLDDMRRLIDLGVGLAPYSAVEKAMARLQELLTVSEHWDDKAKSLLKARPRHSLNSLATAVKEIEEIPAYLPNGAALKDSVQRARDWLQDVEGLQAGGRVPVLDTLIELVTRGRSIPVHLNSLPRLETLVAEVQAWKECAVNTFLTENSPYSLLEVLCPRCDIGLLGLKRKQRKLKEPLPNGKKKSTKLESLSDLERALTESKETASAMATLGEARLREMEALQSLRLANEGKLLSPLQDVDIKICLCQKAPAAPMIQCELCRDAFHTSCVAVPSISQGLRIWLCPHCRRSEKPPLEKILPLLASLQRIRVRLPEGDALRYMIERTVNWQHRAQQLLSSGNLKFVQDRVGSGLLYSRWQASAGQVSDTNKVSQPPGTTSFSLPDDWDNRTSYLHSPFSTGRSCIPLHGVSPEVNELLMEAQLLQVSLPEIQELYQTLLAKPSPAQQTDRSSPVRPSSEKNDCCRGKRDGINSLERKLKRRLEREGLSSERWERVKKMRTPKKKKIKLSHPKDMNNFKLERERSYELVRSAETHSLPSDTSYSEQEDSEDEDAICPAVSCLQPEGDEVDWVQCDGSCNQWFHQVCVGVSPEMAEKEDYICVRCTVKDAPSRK
SMILES,Potency,"activity change, negative = inhibition"
Cc1ccc2c(c1)c1c(c(=O)n(Cc3ccccc3)c(=O)n1CC(=O)Nc1ccccc1C)n2C,"inconclusive: 63.1 µM [inhibitor, single point]",
CC(Sc1nc(-c2ccco2)nc2ccccc12)C(=O)N(C)C (stereo not given),"inconclusive: 25.1 µM [inhibitor, partial curve, poor fit]",
COc1cc2c(cc1C=O)OCCCO2,"inconclusive: 35.5 µM [inhibitor, partial curve, poor fit]",
COc1ccccc1N1CCN(C(=O)CCc2ccccc2C)CC1=O,,inactive: -20.9%
CCN(CC)c1nc2ccccc2n(Cc2cccc(OC)c2)c1=O,"inconclusive: 39.8 µM [inhibitor, partial curve, poor fit]",
Cc1ccc(CN2c3ccccc3S(=O)(=O)c3ccccc32)cc1,"inconclusive: 39.8 µM [inhibitor, single point]",
COCCCNC(=O)C1CC(=O)N(c2n[nH]c3cccc(F)c23)C1 (stereo not given),,inactive: 15.5%
Fc1ccc(Cc2nc3nccc(-c4ccsc4)n3n2)cc1,active: 25.1 µM,
COc1ccc(CNC(=O)CC2N=C3c4ccccc4N=C(SCC(=O)Nc4ccc(N(C)C)cc4)N3C2=O)cc1 (stereo not given),"inconclusive: 31.6 µM [inhibitor, single point]",
CCOc1ccccc1NC(=O)CC1Nc2ccccc2NC1=O (stereo not given),"inconclusive: 25.1 µM [inhibitor, single point]",
O=C(O)[C@@H]1CN(C(=O)c2ccn[nH]2)C[C@H]1c1ccc2c(c1)OCO2,,inactive: -6.5%
O=C(CSc1oc(-c2ccco2)nc1S(=O)(=O)c1ccc(Cl)cc1)c1ccc(Cl)cc1,"inconclusive: 35.5 µM [inhibitor, single point]",
O=C(c1ccc2cc[nH]c2c1)N1CCC2(CC1)N=C(c1cccc(Br)c1)NO2,active: 28.2 µM,
c1ccc(CN2CC[C@H](c3nc4ncccc4[nH]3)C2)cc1,,inactive: -21.5% [at 115 µM]
O=C(c1ccccc1Cl)N1CC2(Cc3ccccc3NC2=O)C1,"inconclusive: 3.98 µM [inhibitor, full curve]",
CC(C)c1ccc(NS(=O)(=O)c2ccc3[nH]cc(C(=O)NCC4CCCO4)c(=O)c3c2)cc1 (stereo not given),"inconclusive: 35.5 µM [inhibitor, single point]",
O=C(N[C@H](c1ccccn1)C1CC(O)C1)c1cc(=O)n(-c2ccccc2)[nH]1 (stereo not given in full),,inactive: -26.8%
CCCCNC(=O)c1cccc2c1CCN2C(=O)Nc1ccccc1,,inactive: -19.8%
CC(C)Cn1cncc1CNC(=O)c1ccc2nc(-c3ccc(F)cc3)cn2c1,active: 25.1 µM,
N#Cc1cccc(N2CCC(Oc3ccc(Cl)cc3)(C(=O)O)CC2)n1,"inconclusive: 39.8 µM [inhibitor, single point]",
CN(Cc1cccnc1)c1ccc(-c2nc(COc3ccccc3)no2)cn1,active: 35.5 µM,
CCOC(=O)c1cc2c(=O)n3ccccc3nc2n(Cc2ccco2)c1=NC(=O)c1cccc(F)c1,"inconclusive: 3.55 µM [inhibitor, full curve, poor fit]",
Fc1ccc(Nc2nc(SCc3ccccc3F)nc3ccccc23)cc1,"inconclusive: 35.5 µM [inhibitor, partial curve, poor fit]",
CNC(=O)CCS(=O)(=O)Cc1coc(-c2ccc(C)cc2C)n1,,inactive: 12.4%

SMILES,Potency,"activity change, negative = inhibition"
Cc1ccc(C)c(NC(=O)Cn2c(N3CCN(c4ccccc4)CC3)nc(C)cc2=O)c1,"inconclusive: 12.6 µM [inhibitor, partial curve, poor fit]",
CCC1CCCCN1C(=O)CSc1nc(-c2ccc(OC)c(OC)c2)cc(C(F)(F)F)n1 (stereo not given),"inconclusive: 31.6 µM [inhibitor, partial curve, poor fit]",
COc1ccccc1C(=O)N1CCN(c2oc(-c3cccs3)nc2C#N)CC1,"inconclusive: 5.62 µM [inhibitor, full curve, poor fit]",
CC(C)N1CCN(C(=O)c2cc3c(=O)[nH]c(-c4ccccc4)cn3n2)CC1,active: 25.1 µM,
CCCCc1nnc(NC(=O)COc2ccc3c(C)cc(=O)oc3c2)s1,"inconclusive: 39.8 µM [inhibitor, single point]",
CCOc1ccc(-c2cc3c(=O)n(CCNC(=O)c4ccc(OC)c(F)c4)ccn3n2)cc1,,inactive: 2.01%
COc1ccc(-c2cc(N3CCCC(NC(=O)c4ccc(C)s4)C3)n[nH]2)cc1 (stereo not given),"inconclusive: 17.8 µM [inhibitor, partial curve, poor fit]",
Cc1c(F)cccc1NC(=O)N1CCC(OC2CCN(Cc3ccccc3)CC2)CC1,,inactive: -22.5%
CCCCOc1ccc2c(-c3ccccc3)cc(=O)oc2c1C,,inactive: 11.3%
Cc1ccc(-c2ccc3nnc(CNC(=O)c4ccco4)n3n2)cc1,active: 31.6 µM,
CCOC(=O)/C(C#N)=C/c1cccn1-c1ccc(Cl)cc1,,inactive: 400%
Cc1cccc(NC(=O)c2sc3nc4c(cc3c2N)CN(C(C)C)CC4)c1,"inconclusive: 17.8 µM [inhibitor, partial curve, poor fit]",
COCC(=O)N(C)Cc1ccccc1C(F)(F)F,,inactive: 4.96% [at 86.2 µM]
CCOc1ccc(S(=O)(=O)N2CCc3nc4cc[nH]n4c(=O)c3C2)cc1,"inconclusive: 20 µM [inhibitor, partial curve, poor fit]",
CCCOC(=O)c1ccc(Oc2c(C)oc3cc(OC(=O)N4CCOCC4)ccc3c2=O)cc1,,inactive: -8.68%
O=C(Cn1ccn2nc(-c3ccccc3)c(CO)c2c1=O)Nc1cccc(Cl)c1,"inconclusive: 17.8 µM [inhibitor, single point]",
COc1cccc(NC(=O)C2(C)CCc3cnc(NCc4ccccc4)nc32)c1 (stereo not given),,inactive: -7.73% [at 86.2 µM]
O=C1CC(C(=O)N2CCc3nc(-c4ccccc4)[nH]c3C2)C2(CCCCC2)O1 (stereo not given),"inconclusive: 35.5 µM [inhibitor, single point]",
Cn1c(Cn2c3ccccc3c3ccccc32)n[nH]c1=S,"inconclusive: 20 µM [inhibitor, single point]",
Fc1cccc(-c2[nH]ncc2CN2CCN(c3cccnc3)CC2)c1,"inconclusive: 35.5 µM [inhibitor, single point]",
O=C(Cc1c[nH]c2ncc(-c3ccccc3)cc12)NCCN1CCOCC1,"inconclusive: 35.5 µM [inhibitor, single point]",
CC(C)Cc1cn(CC2CCCN(C(=O)c3n[nH]c4c3CCCC4)C2)nn1 (stereo not given),,inactive: -12.1%
CCOC(=O)c1[nH]cnc1C(=O)Nc1ccc(C)cc1,"inconclusive: 44.7 µM [inhibitor, single point]",
Cc1c(C)[n+](=O)c2cc(F)c(F)cc2n1[O-],"inconclusive: 10 µM [inhibitor, partial curve, poor fit]",

SMILES,Potency,"activity change, negative = inhibition"
Cc1ccc2oc(=O)n(CCC(=O)NC3CCCN(c4ncccn4)C3)c2c1 (stereo not given),"inconclusive: 15.8 µM [inhibitor, single point]",
Clc1cccc(-n2nnnc2-c2ccccc2)c1,,inactive: -1.61%
COc1ccccc1-c1cc(C(=O)NCc2ccc(F)cc2)c2cnn(C)c2n1,active: 89.1 µM,
COc1ccc(CNC(=O)CN2C(=O)COc3ccc(S(=O)(=O)N4CCC(C)CC4)cc32)cc1,,inactive: -29%
Cc1cc(-c2cc(-c3cccs3)nc3c(C)noc23)ccn1,active: 28.2 µM,
Cc1cnc(C)n1CCN,"inconclusive: 25.1 µM [inhibitor, partial curve, poor fit]",
O=C1COc2ccc(-c3ccncc3)nc2CN1Cc1ccccc1,active: 35.5 µM,
Cc1cc(NC(=O)c2ccc3nc(N4CCCCC4)sc3c2)ccc1Br,,inactive: 0.174%
Cc1ccccc1Cn1cc(-c2ccncc2)cc1C(=O)N1CCN(C2CCCCC2)CC1,"inconclusive: 17.8 µM [inhibitor, single point]",
N#Cc1ccsc1NC(=O)CSc1nnc(-c2ccccc2F)n1C1CC1,,inactive: 3.79%
CCCn1nc(C(=O)OC(C)C(=O)NCc2ccco2)c2ccccc2c1=O (stereo not given),,inactive: -21.1%
Nc1cccc2ccc(C(=O)O)nc12,"inconclusive: 5.62 µM [inhibitor, full curve, poor fit]",
O=C1NCCCCCCN(Cc2ccncc2)[C@@H]2CN(Cc3cccnc3)CC[C@H]12,"inconclusive: 22.4 µM [inhibitor, partial curve, poor fit]",
CC1=C[C@@H](CN(C)C)[C@H](C(C)C)C[C@H]1Cc1nc2c(C)cccc2[nH]1,,inactive: 23.6% [at 86.2 µM]
CCc1ccccc1-n1nc(-c2c(C)nc3scc(CC(=O)NCc4ccco4)n3c2=O)cc1C,active: 28.2 µM,
O=C(NCc1cccnc1)c1nc(-c2ccccc2)cc2[nH]ccc12,active: 35.5 µM,
COc1ccc(-c2cc(=O)c3cc(OCC(=O)OC(C)C)ccc3o2)cc1,"inconclusive: 17.8 µM [inhibitor, partial curve, poor fit]",
COc1ccccc1NC(=O)C1CCN(S(=O)(=O)c2ccc3[nH]c4c(c3c2)CCCCC4)CC1,"inconclusive: 31.6 µM [inhibitor, partial curve, poor fit]",
CCN1CCN(C(c2ccc(SC)cc2)c2c(O)cc(C)n(Cc3ccco3)c2=O)CC1 (stereo not given),"inconclusive: 25.1 µM [inhibitor, partial curve, poor fit]",
Oc1ccc(-c2nc(-c3ccccc3)c(-c3ccc(Br)cc3)[nH]2)cc1,"inconclusive: 2.82 µM [inhibitor, full curve, poor fit]",
CCC(C)NC(=O)CCNC(=O)Cc1c(C)nc2nc(N)nn2c1C (stereo not given),"inconclusive: 28.2 µM [inhibitor, partial curve, poor fit]",
Cc1nn(-c2ccccc2)c2c1cc1c(=O)n(C)c(=O)nc-1n2-c1cccc(Cl)c1,"inconclusive: 2.82 µM [inhibitor, full curve, poor fit]",
